# Measurements published in the supplement of paper PMC8728848.
# Some of the results follow.
# What was measured:
# Assay in all cases: glycan array binding signal (z-score within array); higher = stronger binding
# Conditions in all cases: glycan notation: IUPAC condensed, linker removed
# [1] = target: GalNAc(b1-4)GlcNAc(b1-2)Man
# Procedure, shortened: (§1)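 From the Consortium for Functional Glycomics database, 3228 arrays were curated, keeping only those whose protein sequence was available. Binding is given as a within-array Z-score averaged across arrays sharing a protein sequence and across linkers. Negative Z-scores can be read as non-binding.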
# [2] = target: GalNAc(b1-4)GlcNAc(b1-2)Man(a1-3)[GalNAc(b1-4)GlcNAc(b1-2)Man(a1-6)]Man(b1-4)GlcNAc(b1-4)GlcNAc
# Procedure, shortened: as §1
# [3] = target: GalNAc(b1-4)GlcNAc(b1-3)GalNAc(b1-4)GlcNAc
# Procedure, shortened: as §1
# GalNAc(b1-4)GlcNAc6S = target: GalNAc(b1-4)GlcNAc6S
# Procedure, shortened: as §1
# GalNAc(b1-6)GalNAc = target: GalNAc(b1-6)GalNAc
# Procedure, shortened: as §1
# GalNAc3S(b1-4)GlcNAc = target: GalNAc3S(b1-4)GlcNAc
# Procedure, shortened: as §1
# GalNAc3S(b1-4)GlcNAc3S = target: GalNAc3S(b1-4)GlcNAc3S
# Procedure, shortened: as §1
# [4] = target: GalNAc3S(b1-4)[Fuc(a1-3)]GlcNAc
# Procedure, shortened: as §1
# GalNAc4S6S(b1-4)GlcNAc = target: GalNAc4S6S(b1-4)GlcNAc
# Procedure, shortened: as §1
# GalNAc6S(b1-4)GlcNAc = target: GalNAc6S(b1-4)GlcNAc
# Procedure, shortened: as §1
# Glc(a1-4)Glc = target: Glc(a1-4)Glc
# Procedure, shortened: as §1
# [5] = target: Glc(a1-4)Glc(a1-4)Glc(a1-4)Glc
# Procedure, shortened: as §1
# Glc(a1-6)Glc(a1-6)Glc = target: Glc(a1-6)Glc(a1-6)Glc
# Procedure, shortened: as §1
# [6] = target: Glc(a1-6)Glc(a1-6)Glc(a1-6)Glc
# Procedure, shortened: as §1
# Glc(b1-4)Glc = target: Glc(b1-4)Glc
# Procedure, shortened: as §1
# Glc(b1-6)Glc = target: Glc(b1-6)Glc
# Procedure, shortened: as §1
# GlcA(b1-3)Gal = target: GlcA(b1-3)Gal
# Procedure, shortened: as §1
# GlcA(b1-3)GlcNAc = target: GlcA(b1-3)GlcNAc
# Procedure, shortened: as §1
# GlcA(b1-6)Gal = target: GlcA(b1-6)Gal
# Procedure, shortened: as §1
# [7] = target: GlcA3S(b1-3)Gal(b1-4)GlcNAc(b1-2)Man
# Procedure, shortened: as §1
# [8] = target: GlcA3S(b1-3)Gal(b1-4)GlcNAc(b1-3)Gal(b1-4)Glc
# Procedure, shortened: as §1
# [9] = target: GlcNAc(a1-3)Gal(b1-4)GlcNAc
# Procedure, shortened: as §1
# [10] = target: GlcNAc(a1-4)Gal(b1-3)GlcNAc
# Procedure, shortened: as §1
# [11] = target: GlcNAc(a1-4)Gal(b1-4)GalNAc
# Procedure, shortened: as §1
# [12] = target: GlcNAc(a1-4)Gal(b1-4)GlcNAc
# Procedure, shortened: as §1
# [13] = target: GlcNAc(a1-4)Gal(b1-4)GlcNAc(b1-3)Gal(b1-4)Glc
# Procedure, shortened: as §1
# [14] = target: GlcNAc(a1-4)Gal(b1-4)GlcNAc(b1-3)Gal(b1-4)GlcNAc
# Procedure, shortened: as §1
# [15] = target: GlcNAc(a1-4)Gal(b1-4)GlcNAc(b1-3)Gal(b1-4)GlcNAc(b1-3)Gal(b1-4)GlcNAc
# Procedure, shortened: as §1
# [16] = target: GlcNAc(a1-4)Gal(b1-4)GlcNAc(b1-3)Gal(b1-4)[Fuc(a1-3)]GlcNAc(b1-3)Gal(b1-4)[Fuc(a1-3)]GlcNAc
# Procedure, shortened: as §1
# [17] = target: GlcNAc(a1-6)Gal(b1-4)GlcNAc
# Procedure, shortened: as §1
# [18] = target: GlcNAc(b1-2)Gal(b1-3)GalNAc
# Procedure, shortened: as §1
# [19] = target: GlcNAc(b1-2)Man(a1-3)[GlcNAc(b1-2)Man(a1-6)]Man(b1-4)GlcNAc(b1-4)GlcNAc
# Procedure, shortened: as §1
# [20] = target: GlcNAc(b1-2)Man(a1-3)[GlcNAc(b1-2)Man(a1-6)]Man(b1-4)GlcNAc(b1-4)[Fuc(a1-6)]GlcNAc
# Procedure, shortened: as §1
# [21] = target: GlcNAc(b1-2)Man(a1-3)[GlcNAc(b1-4)][GlcNAc(b1-2)Man(a1-6)]Man(b1-4)GlcNAc(b1-4)GlcNAc
# Procedure, shortened: as §1
# [22] = target: GlcNAc(b1-2)Man(a1-3)[GlcNAc(b1-4)][GlcNAc(b1-2)Man(a1-6)]Man(b1-4)GlcNAc(b1-4)[Fuc(a1-6)]GlcNAc
# Procedure, shortened: as §1
# [23] = target: GlcNAc(b1-2)[GlcNAc(b1-4)]Man(a1-3)[GlcNAc(b1-2)Man(a1-6)]Man(b1-4)GlcNAc(b1-4)GlcNAc
# Procedure, shortened: as §1
# [24] = target: GlcNAc(b1-2)[GlcNAc(b1-4)]Man(a1-3)[GlcNAc(b1-4)][GlcNAc(b1-2)Man(a1-6)]Man(b1-4)GlcNAc(b1-4)GlcNAc
# Procedure, shortened: as §1
# [25] = target: GlcNAc(b1-2)[GlcNAc(b1-4)]Man(a1-3)[GlcNAc(b1-4)][GlcNAc(b1-2)[GlcNAc(b1-6)]Man(a1-6)]Man(b1-4)GlcNAc(b1-4)GlcNAc
# Procedure, shortened: as §1
# [26] = target: GlcNAc(b1-2)[GlcNAc(b1-4)]Man(a1-3)[GlcNAc(b1-4)][GlcNAc(b1-2)[GlcNAc(b1-6)]Man(a1-6)]Man(b1-4)GlcNAc(b1-4)[Fuc(a1-6)]GlcNAc
# Procedure, shortened: as §1
# [27] = target: GlcNAc(b1-2)[GlcNAc(b1-6)]Man(a1-6)[GlcNAc(b1-2)Man(a1-3)]Man(b1-4)GlcNAc(b1-4)GlcNAc
# Procedure, shortened: as §1
# [28] = target: GlcNAc(b1-2)[GlcNAc(b1-6)]Man(a1-6)[GlcNAc(b1-2)Man(a1-3)]Man(b1-4)GlcNAc(b1-4)[Fuc(a1-6)]GlcNAc
# Procedure, shortened: as §1
# [29] = target: GlcNAc(b1-2)[GlcNAc(b1-6)]Man(a1-6)[GlcNAc(b1-4)][GlcNAc(b1-2)Man(a1-3)]Man(b1-4)GlcNAc(b1-4)GlcNAc
# Procedure, shortened: as §1
# GlcNAc(b1-3)Fuc = target: GlcNAc(b1-3)Fuc
# Procedure, shortened: as §1
# GlcNAc(b1-3)Gal = target: GlcNAc(b1-3)Gal
# Procedure, shortened: as §1
# [30] = target: GlcNAc(b1-3)Gal(b1-3)GalNAc
# Procedure, shortened: as §1
binder,measurement,setting,value
EULS2 M4 (Oryza sativa) (protein) MVYCRANPNYAMTARNGAVVLAPANPKDEYQHWIKDMRWSTSIKDEEGYPAFALVNKATGQAIKHSLGQSHPVRLVPYNPEVMDESVLWTESRDVGNGFRCIRMVNNIYLNFDAFHGDKYHGGVRDGTDIVLWKWCEGDSLRWKIQPYYILEQKLISEEDLNSAVDHHHHHH,glycan array binding signal (z-score),[1],-0.213
same,glycan array binding signal (z-score),[2],-0.11
same,glycan array binding signal (z-score),[3],-0.494
same,glycan array binding signal (z-score),GalNAc(b1-4)GlcNAc6S,-0.326
same,glycan array binding signal (z-score),GalNAc(b1-6)GalNAc,-0.396
same,glycan array binding signal (z-score),GalNAc3S(b1-4)GlcNAc,-0.46
same,glycan array binding signal (z-score),GalNAc3S(b1-4)GlcNAc3S,-0.634
same,glycan array binding signal (z-score),[4],0.46
same,glycan array binding signal (z-score),GalNAc4S6S(b1-4)GlcNAc,-0.394
same,glycan array binding signal (z-score),GalNAc6S(b1-4)GlcNAc,-0.089
same,glycan array binding signal (z-score),Glc(a1-4)Glc,-0.419
same,glycan array binding signal (z-score),[5],0.089
same,glycan array binding signal (z-score),Glc(a1-6)Glc(a1-6)Glc,0.287
same,glycan array binding signal (z-score),[6],-0.515
same,glycan array binding signal (z-score),Glc(b1-4)Glc,-0.598
same,glycan array binding signal (z-score),Glc(b1-6)Glc,-0.026
same,glycan array binding signal (z-score),GlcA(b1-3)Gal,-0.38
same,glycan array binding signal (z-score),GlcA(b1-3)GlcNAc,2.29
same,glycan array binding signal (z-score),GlcA(b1-6)Gal,-0.632
same,glycan array binding signal (z-score),[7],-0.306
same,glycan array binding signal (z-score),[8],-0.489
same,glycan array binding signal (z-score),[9],-0.316
same,glycan array binding signal (z-score),[10],-0.229
same,glycan array binding signal (z-score),[11],-0.159
same,glycan array binding signal (z-score),[12],-0.631
same,glycan array binding signal (z-score),[13],1.59
same,glycan array binding signal (z-score),[14],-0.554
same,glycan array binding signal (z-score),[15],-0.045
same,glycan array binding signal (z-score),[16],0.121
same,glycan array binding signal (z-score),[17],0.149
same,glycan array binding signal (z-score),[18],-0.527
same,glycan array binding signal (z-score),[19],-0.333
same,glycan array binding signal (z-score),[20],-0.215
same,glycan array binding signal (z-score),[21],-0.089
same,glycan array binding signal (z-score),[22],-0.133
same,glycan array binding signal (z-score),[23],0.753
same,glycan array binding signal (z-score),[24],-0.288
same,glycan array binding signal (z-score),[25],-0.347
same,glycan array binding signal (z-score),[26],-0.221
same,glycan array binding signal (z-score),[27],-0.373
same,glycan array binding signal (z-score),[28],0.298
same,glycan array binding signal (z-score),[29],-0.337
same,glycan array binding signal (z-score),GlcNAc(b1-3)Fuc,-0.287
same,glycan array binding signal (z-score),GlcNAc(b1-3)Gal,0.256
same,glycan array binding signal (z-score),[30],0.129
